# About 540 (0.36%) of roughly 150,000 compounds showed an effect of 50% or more. The list shows a part of the results.
# Tested on: Plasmodium falciparum
# Test: Primary screen in NF54 nanoGlo assay, in single point, at 2uM, 72h; a lower Z score goes with more inhibition
# Format: functional, Erythrocyte
# Conditions: timepoint 72 hour
SMILES,% Inhibition [%],Z score
Cc1csc(C(=O)N2CCCN(S(=O)(=O)c3c(C)n[nH]c3C)CC2)c1,-11,1.72
CC(C)(C)c1nc2ccccn2c1-c1ccc(C(=O)N2CCCNCC2)cc1,10,-1.91
CN(Cc1ccc2ccccc2n1)C(=O)CN1C(=O)CNC1=O,-5,1.03
CCOC(=O)c1cc(C2CC2)nc2c1c(=O)n(Cc1nc(-c3cccc(Cl)c3)oc1C)c(=O)n2C,4,-0.59
CC(O)C(C)S(=O)(=O)Cc1ccc(C(F)(F)F)cn1 (stereo unspecified),3,-0.47
O=C(NCc1ccc(Cl)cc1)N1CC(n2nccn2)C1,-21,2.45
CC(C(=O)O)N1CCCC(CN2CCCCCC2)C1 (stereo unspecified),-2,0.23
Cc1c(C(=O)N2CCCCC3CCCCC32)cnn1CC(C)C (stereo unspecified),-10,1.45
O=C(NCCc1c[nH]c2ccccc12)c1ccc2c3c(cccc13)CC2,0,0.04
O=S1(=O)CCC[C@@H]1CNCc1csc(-c2ccccn2)n1,-13,1.51
CC(C)CC(=O)NC(=O)NC1CCCCC1,1,-0.1
Cc1nn(CC(=O)NC[C@H](C)n2ccnc2)c(=O)n1Cc1ccccc1,-5,0.49
CO[C@H]1CCCN(S(=O)(=O)c2cc(-c3cc(C(F)(F)F)on3)oc2C)C1,6,-1.17
C=C(C)CNC(=O)c1c(F)ccc(S(=O)(=O)CC2CC2)c1F,6,-0.93
COc1ccc(/C=C/CN2CCC3(CCC(=O)N([C@H]4CCN(C)C4)C3)CC2)cc1,-5,1.07
Cc1cc(C(=O)N[C@@H](CO)c2csc(C(C)C)n2)ns1,5,-0.92
O=C(NC1CCC(n2cccn2)CC1)c1ccc(Cl)s1 (stereo unspecified),1,-0.2
COCCNC(=O)C1CC2CCCCC2N1S(=O)(=O)c1ccc2c(c1)OCCO2 (stereo unspecified),4,-0.52
Cc1nn(C)cc1S(=O)(=O)N1CCN(C(=O)[C@@H]2CCCO2)CC1,-36,4.25
COc1ccc(N2C(=O)[C@@H]3[C@H](CCC(N)=O)N[C@]4(C(=O)Nc5ccccc54)[C@@H]3C2=O)cc1,-4,0.32
O=C(c1ccno1)N1CCC(c2nc3ccccc3o2)CC1,-15,2.23
CCCc1nc(CN(CC)C(=O)[C@@H](c2ccc(F)cc2)N(C)C)no1,-12,2.27
CC(NC(=O)C1CCCOC1)(C(N)=O)c1cccc(Cl)c1 (stereo unspecified),-3,0.64
Cc1nc(NCc2ccccc2)sc1-c1ccn(Cc2ccncc2)n1,-9,1.15
CCCCN1CCN(C(=O)c2cnc(N)s2)CC1=O,-1,0.24
CCOCC(=O)N[C@@H](C(N)=O)c1cccc(Br)c1,0,-0.09
O=C(Nc1nc2c(s1)CN(S(=O)(=O)Cc1cccc(F)c1)CC2)c1ccoc1,5,-0.64

SMILES,% Inhibition [%],Z score
CC(Cn1cccn1)C(=O)N1C[C@H]2C[C@H](O)[C@@H](O)C[C@H]2C1 (stereo partly specified),-7,1.04
CN(C)c1ccc(-c2noc(CCN3C(=O)c4ccccc4C3=O)n2)cc1,-10,1.4
CN(Cc1ccccc1)C(=O)c1cc(=O)c(OCc2ccccc2)c[nH]1,2,-0.32
O=S(=O)(c1ccc(-c2noc(C3CCCCC3)n2)cc1)N1CCCCC1,-3,0.54
O=C(c1ccoc1)N1CC(Nc2ccncn2)C1,1,-0.11
CCCc1nnc2sc(CCOc3ccccc3)nn12,-2,0.31
CCn1ncc(C#N)c1NS(=O)(=O)c1cccs1,-6,0.69
Cc1cncc(CCNC(=O)Nc2nc(C)c(Cc3ccc(F)cc3)s2)n1,-7,1.09
COc1ccc(OC)c(S(=O)(=O)Nc2ccc3c(c2)OC2(CCCC2)O3)c1,-6,0.66
C[C@H](NC(=O)c1cccc(-c2ncccc2N)c1)c1nc(C2CC2)no1,-18,3.13
CCc1onc(C)c1CS(=O)(=O)c1ccc2c(c1)CCC2,-5,0.84
O=C1OC2CC1N(C(=O)Nc1c(F)cccc1F)C2 (stereo unspecified),-13,2.43
Cc1cncc(C=Cc2cccc(Cl)c2Cl)n1,7,-1.14
Nc1nc(CCC(=O)N2CC(c3cccnc3)C2)cs1,-1,0.23
O=C(c1n[nH]c2c1CCCC2)N1CCC([C@@H](O)CCc2ccccc2)CC1,4,-0.49
Cc1ccc(S(=O)(=O)Nc2ccc(Br)cc2C(=O)Nc2ccc(Oc3ccc(Br)c4ccccc34)c(Cl)c2)cc1,36,-4.59
Cc1sc(-c2noc(C3CCC3)n2)cc1NC(=O)c1ccc2c(c1)OCO2,0,0.05
CC[C@]1(O)CCN(C(=O)c2cnc(N3CCCCC3)nc2C)C[C@@H]1O,4,-0.58
Cc1ccc(CNC(=O)c2ccc(NS(=O)(=O)c3ccc(-c4ccc(F)cc4)cc3)cc2)o1,1,-0.17
Cc1ccc(NC(=O)N2CC[C@H](N(CCN3CCCC3)S(=O)(=O)N(C)C)C2)c(C)c1,-11,1.37
Cc1ccc([C@H]2C(=O)N(C3CCC(C)CC3)CC(=O)N2C2CCCCCCC2)cc1 (stereo partly specified),-6,0.82
CC(C)(CNC(=O)[C@@H]1CCCN1C(=O)c1cccs1)N1CCOCC1,-2,0.17
C[C@]1(O)CCN(c2cnccn2)C[C@H]1Cc1ccccc1,-9,1.16
Cc1cc(=O)n(CC(=O)Nc2ccc3c(c2)CCC3)c(N2CCc3ccccc3C2)n1,-6,0.89
C[C@@H](CNS(=O)(=O)c1ccco1)N(C)S(=O)(=O)c1ccco1,31,-0.45
Cc1n[nH]c([C@@H]2CN(C(=O)CCc3nc4ccccc4s3)C[C@H]2C(N)=O)n1,-8,1.29
